Data: PubChem BioAssay AID1508624 (National Center for Advancing Translational Sciences (NCATS), 2021)
Among all 48,000 compounds or so, about 120 (0.25%) were called active. About 4% were inconclusive and are not listed. The call rests on the fitted dose curve; in most records, active means well fitted activation curve with a large enough effect; inconclusive means small, poorly fitted or top-dose-only effect, or another doubt; inactive means no such curve, though single readings can be large or run the other way. Some of the results follow.

Assay: Primary qHTS for Identification of Small Molecule Activators of Huntingtin-Antisense Promoter Activity; further: nearly all actives have a fitted effect of over 55% in size
Details: HEK293 HTT-AS promoter firefly luciferase reporter (activity 0% = vehicle and -100% = no light), 24 h; series mostly up to 57.5 µM; activity change, positive = activation: at the top concentration
Procedure, shortened: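 Luminescence was read after Dual-Glo reagent and a 10 min room-temperature incubation. Values were normalized to vehicle (0% activity) and zero RLU (-100% activity). Reporter HEK293 cells had been exposed to compounds (up to 57.5 uM final) for 24 h.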

Activity change, positive = activation, inactive:
COc1ccc(Br)cc1[C@@H]1Nc2ccc(C(=O)O)cc2[C@@H]2C=CC[C@@H]21 -13%, Cn1ncc2c(N3CCN(c4ccccc4F)CC3)ncnc21 -3.15%, CCOc1ccc(/C=C/c2nc(C#N)c(NC(C)c3ccccc3)o2)cc1 (stereo unspecified) -12.7%, COc1ccc(C)cc1NC(=O)Nc1cccc(OCc2cc(=O)n3ccc(C)cc3n2)c1 11.5%, Cc1ccccc1OCC(=O)NCC(c1ccc(Cl)cc1)N1CCCCC1 (stereo unspecified) -22.2%, CC(=O)N1CCc2cc(Br)cc(S(=O)(=O)N3CCC(C(=O)Nc4ccc(C(C)C)cc4)CC3)c21 -23.8%, COc1ccc(C(=O)CC2(O)C(=O)N(Cc3cccc(C(F)(F)F)c3)c3ccccc32)cc1 (stereo unspecified) -38.3%, CCOC(=O)c1ccc(-n2c(CCC(=O)O)ccc2-c2ccccc2)cc1 -9.66%, COc1ccc(N2CCN(S(=O)(=O)c3ccc(-c4ccno4)cc3OC)CC2)cc1 -13.5%, COc1cccc(C(=O)N2c3ncnn3C3(CCCCC3)[C@@H]3CCCC[C@@H]32)c1 -21.8%, CCCCc1ccc(NC(=O)c2ccc3c(c2)CCN3S(=O)(=O)CC)cc1 -46.9%, CN(Cc1ccccc1)S(=O)(=O)c1ccc(NC(=O)c2cc(=O)c3ccccc3o2)cc1 -34%, CCc1cccc(C)c1NC(=O)CN1C(=O)C2(SCC(=O)N2c2cccc(F)c2)c2ccccc21 (stereo unspecified) -17%, COc1cc(OC)c(NC2=C(c3ccc(C(F)(F)F)cc3)C(=O)c3ccccc32)cc1Cl -36.3%, O=C(Cn1c(=O)nc(-c2ccccc2)c2ccccc21)N1CCN(c2ccc(F)cc2)CC1 4.96%, COc1cc(NC(=O)C(Cc2ccccc2)NS(=O)(=O)c2cccs2)cc(OC)c1 (stereo unspecified) -31.2%, Cc1noc(/C=C/c2ccccc2F)c1S(=O)(=O)N1CCC(C(=O)NCC(C)c2ccccc2)CC1 (stereo unspecified) 14.8%, OCCCn1c(-c2ccc(F)cc2)csc1=Nc1ccc(F)cc1 -20.5%, CC(C)Oc1ccccc1NC(=O)CSc1nccn1C -6.86%, O=C(O)CSc1nc2ccc(NC(=O)COc3ccc(Cl)cc3)cc2s1 -14.2%, Cc1ccc(-n2c(=O)c3c(c4cc(C)ccc4n3C)n(CC(=O)c3ccc(Cl)cc3)c2=O)cc1 -11.5%, C#CCn1c(=O)n(-c2cccc(Cl)c2C)c(=O)c2c3c(sc21)CN(C(C)=O)CC3 -11.8%, CCOc1ccc(CNC(=O)Cn2nc(C)c3c(C)n(-c4ccc(C)cc4)nc3c2=O)cc1 -23.4%, CC(=O)c1ccc(-n2c(CCC(=O)O)ccc2-c2cccs2)cc1 -1.41%, O=C(CCS(=O)(=O)c1ccccc1)N(Cc1cccnc1)c1nc2ccc(F)cc2s1 -18.8%, COc1ccc(-c2cnc(C)o2)cc1S(=O)(=O)Nc1ccc(OC(F)(F)F)cc1 -21.9%, Cc1ccc(C)c(CSc2nnc(C)n3c2cc2sccc23)c1 -27.6%, COc1ccccc1CNC(=O)CSc1ccc(-c2sc(-c3ccccc3)nc2C)nn1 -7.84%, CCC(=O)N1CCc2cc(S(=O)(=O)NC(Cc3ccccc3)C(=O)Nc3ccccc3C)ccc21 (stereo unspecified) -4.25%, O=S(=O)(c1ccc(Cl)cc1)c1nc(-c2ccco2)oc1SCc1ccccc1F -16.1%, CC(=O)c1cccc(NS(=O)(=O)c2cc3c(cc2C)n(C)c(=O)c(=O)n3C)c1 -4.74%, Cc1cccc(NC(=O)C(=O)NCC(c2ccc3c(c2)OCO3)N2CCN(c3ccccc3)CC2)c1 (stereo unspecified) -11.2%, O=C(Nc1sc2c(c1C(=O)Nc1ccccc1)CCC2)c1ccc(Br)cc1 -17.3%, CCOCCCNC(=O)C(c1ccccc1)N1Cc2ccccc2C1=O (stereo unspecified) 7.64%, Cc1ccc(NC(=O)c2ccc(CN3CC(=O)N4CCCCC4C3=O)cc2)c(C)c1 (stereo unspecified) -4.6%, COC(=O)c1ccc(NC(=O)CSc2nnc3c4ccccc4n(C(C)C)c3n2)cc1 -0.427%, CCOc1cccc(C(=O)Nc2cc(C)c(O)c(-c3nc4ncccc4o3)c2)c1 -4.86%, Cc1ccc2c(=O)c(C(=O)c3ccc(F)cc3)cn(CC(=O)Nc3ccc4c(c3)OCCO4)c2n1 -28.7%, COc1cccc(Cc2nc3ccccc3nc2SCC(=O)N2CCCc3ccccc32)c1 -10.8%, COc1ccc(CNC(=O)CC(c2ccc(OC)cc2)N2Cc3ccccc3C2=O)cc1 (stereo unspecified) -13.2%, CCOC(=O)c1c(NC(=O)c2cc(=O)c3cc(C)cc(C)c3o2)sc(C)c1C -7.41%, O=C(CSc1nccn1C1CCCC1)Nc1cc(C(F)(F)F)ccc1Cl -6.48%, Cc1ccc(-c2nn(CC(=O)NCc3ccccc3)c3c2cnc2ccc(F)cc23)cc1C 19.6%, O=C(c1ccc2c(c1)N(Cc1ccccc1)C(=O)c1ccccc1S2(=O)=O)N1CCc2ccccc21 -18.6%, COc1ccc(OC)c(-n2c3c(cc(-c4nc(-c5ccc(Cl)cc5)cs4)c2=O)C(=O)CC(C)(C)C3)c1 -9.36%, CCCNC(=O)CN1C(=O)COc2ccc(S(=O)(=O)N3CCC(C)CC3)cc21 -14.5%, Cc1c(NC(=O)C(C)(C)Oc2ccc(Cl)cc2)cccc1-c1nc2ccccc2o1 -42.3%, O=C(c1cc(-c2ccc(F)cc2)on1)N1CCN(c2ccc(F)cc2)CC1 -13.1%, CCCCNS(=O)(=O)c1ccc2nc(-c3cccnc3)cc(C(=O)NC(C)C)c2c1 -22%, Cn1nc(C(=O)N2CCN(c3ccccc3F)CC2)c2c1-c1ccccc1S(=O)(=O)C2 18.9%, O=C(CN1C(=O)c2cccc3cccc1c23)Nc1ccccc1Br -7.71%, CCCC1N=C2c3ccccc3N=C(SCC(=O)NCCc3ccc(Cl)cc3)N2C1=O (stereo unspecified) 12.4%, CCOC(=O)c1ccccc1NC(=O)c1cc2ccc3cccnc3c2[nH]1 10.3%, CCCOC(=O)CSc1nnc(-c2ccccc2)o1 -16.4%, CCn1c(C(=O)Nc2ccc(C)cc2C)cc2sc(Cl)cc21 -27.1%, CCOC(=O)COc1ccc(C)cc1C(=O)c1ccn2nc(-c3ccc(Cl)cc3)cc2n1 -14.2%, CC(C)c1ccc(CNc2nc(-c3ccco3)nn2S(=O)(=O)c2ccc(F)cc2)cc1 6.29%, Cc1cccc(N2CCN(Cc3cc(=O)oc4cc(C)ccc34)CC2C)c1 (stereo unspecified) -4.8%, Cc1ccccc1N1CC(c2nnc(NC(=O)c3ccco3)s2)CC1=O (stereo unspecified) -9.34%, CCOc1ccc(OCC(=O)NCCS(=O)(=O)N2CCN(c3cccc(Cl)c3)CC2)cc1 -27.2%, Cc1cccc(NC(=O)N2CCC(N3CCN(Cc4ccccc4)C(=O)C3=O)CC2)c1C -1.1%
